In PMC4336329 (PLoS ONE, 2015):
The whole screen tested about 310,000 compounds, of which about 14,000 (4.5%) showed an effect of 50% or more. Effects have a minus sign here. The list shows a part of the results.

target: human ether-à-go-go-related gene (hERG) potassium channel (human, UniProt Q12809); experiment: primary screen, population patch clamp on CHO cells stably expressing hERG
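Further: peak tail current of the secondary pulse compared with the same well before compound.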

human ether-à-go-go-related gene (hERG) potassium channel, sequence (Q12809 whole entry, looked up): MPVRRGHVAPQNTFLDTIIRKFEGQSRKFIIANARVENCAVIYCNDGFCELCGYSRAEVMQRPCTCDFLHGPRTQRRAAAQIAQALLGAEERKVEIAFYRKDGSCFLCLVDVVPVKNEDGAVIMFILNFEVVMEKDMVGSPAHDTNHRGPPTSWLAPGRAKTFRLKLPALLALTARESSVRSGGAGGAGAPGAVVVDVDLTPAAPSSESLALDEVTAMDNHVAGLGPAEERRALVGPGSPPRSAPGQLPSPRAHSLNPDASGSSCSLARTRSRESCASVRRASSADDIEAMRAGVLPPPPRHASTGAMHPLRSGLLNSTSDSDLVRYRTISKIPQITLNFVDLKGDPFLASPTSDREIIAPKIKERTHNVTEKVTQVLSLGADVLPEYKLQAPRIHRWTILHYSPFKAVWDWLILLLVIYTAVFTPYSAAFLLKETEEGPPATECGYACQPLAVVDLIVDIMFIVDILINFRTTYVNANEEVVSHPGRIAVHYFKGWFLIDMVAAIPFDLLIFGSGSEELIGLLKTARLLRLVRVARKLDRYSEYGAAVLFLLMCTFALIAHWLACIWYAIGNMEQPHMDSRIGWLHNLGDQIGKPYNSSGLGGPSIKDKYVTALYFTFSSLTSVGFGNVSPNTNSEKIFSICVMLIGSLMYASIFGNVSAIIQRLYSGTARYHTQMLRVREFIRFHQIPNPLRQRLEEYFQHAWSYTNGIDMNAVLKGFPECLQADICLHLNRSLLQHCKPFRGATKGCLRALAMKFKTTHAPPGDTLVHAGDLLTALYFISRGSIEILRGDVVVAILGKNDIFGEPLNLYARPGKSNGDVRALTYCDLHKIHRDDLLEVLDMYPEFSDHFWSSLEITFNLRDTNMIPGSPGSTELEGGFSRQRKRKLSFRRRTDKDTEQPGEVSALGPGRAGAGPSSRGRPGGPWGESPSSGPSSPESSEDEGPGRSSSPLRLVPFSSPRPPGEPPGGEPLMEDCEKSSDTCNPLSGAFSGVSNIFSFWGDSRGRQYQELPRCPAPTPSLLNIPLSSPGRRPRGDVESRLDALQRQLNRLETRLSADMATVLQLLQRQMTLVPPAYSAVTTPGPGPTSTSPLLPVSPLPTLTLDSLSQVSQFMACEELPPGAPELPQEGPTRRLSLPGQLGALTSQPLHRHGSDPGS

| Structure (SMILES) | hERG current change (%, negative = inhibition) at 10uM |
| --- | --- |
| CCCCOc1ccc(OC(=O)c2cccnc2)cc1 | 6.59% |
| COc1ccc2sc(-c3ccc(N(C)C)cc3)c(C#CCO)c2c1 | 14.3% |
| O=c1c(Cc2c(F)cccc2Cl)c(O)ccn1CC1CCCO1 (centres unmarked) | 13.8% |
| CN=C1SC(CC(=O)Nc2cc(Cl)ccc2Cl)C(=O)N1C (centres unmarked) | -2.84% |
| O=C(Oc1ccccc1N1C(=O)CCC1=O)c1ccco1 | 1.62% |
| COc1ccc2c(c1)c1nnc(SC)nc1n2C | -5.31% |
| CCCn1nnc(NC(=O)c2cc3ccccc3o2)n1 | 9.37% |
| COC(OC)c1ccnc(-c2ccc(OC(C)=O)cc2)n1 | 51.2% |
| CCOC(=O)C1(CCOc2ccccc2)CCN(Cc2cccn2-c2ncccn2)CC1 | -76.4% |
| COc1cc(/C=N/NC(=O)c2cccc(NC(=O)c3ccccc3Cl)c2)ccc1O | -55.6% |
| C=CCN=c1scc(-c2ccco2)n1/N=C/c1ccc(O)c(O)c1O | 10.2% |
| CC1(C)Cc2c(sc3c2c2ncnn2c2nnc(SCC(=O)NCc4ccco4)n32)CO1 | -22% |
| CC(C)(C)c1ccc(C(=S)N2CCN(c3ccccc3)CC2)cc1 | 12% |
| COc1ccc2nc(NC3=NC(C(=O)Nc4ccc(C)cc4)CC(=O)N3)nc(C)c2c1 (centres unmarked) | -0.668% |
| Cc1ccc(NC(=O)CSc2nc3[nH]ncc3c(=O)[nH]2)cc1 | 5.75% |
| COC(=O)C1=C(c2cccc(C#N)c2)C[C@@H]2CC[C@H]1N2C(=O)NCCOc1ccccc1 | -10.3% |
| CCOc1ccc2nnnn2n1 | 8.59% |
| COCc1c(C(=O)N/N=C/c2ccncc2)nnn1-c1nonc1N | -0.253% |
| CSCCC(NS(=O)(=O)c1ccc2c(c1)Cc1cc(S(=O)(=O)NC(CCSC)C(=O)O)ccc1-2)C(=O)O (centres unmarked) | 33.1% |
| Cc1cccc(-n2cc(-c3ccccc3)c3c(N4CCOCC4)ncnc32)c1 | 30.7% |
| CCC(=O)Nc1cccc(C(=O)/C=C/c2ccc(F)cc2)c1 | -69.1% |
| O=C([O-])c1cc(-c2cccnc2)nc2ccccc12.[K+] | 6.48% |

| Structure (SMILES) | hERG current change (%, negative = inhibition) at 10uM |
| --- | --- |
| O=c1c2c3c(sc2nc(NCCO)n1Cc1ccco1)CCCCC3 | 3.41% |
| CC(=O)Nc1ccc(S(=O)(=O)NNC(=O)c2cccc3ccccc23)cc1 | 8.91% |
| O=C(C1COc2ccccc2O1)N1CCN(S(=O)(=O)c2ccccc2)CC1 (centres unmarked) | -30.2% |
| C/C(=N\Nc1nc2ccccc2[nH]1)c1cccs1 | -19.2% |
| O=C(Nc1ccc(C(=O)O)cc1)/C(=C\C=C\c1ccccc1)NC(=O)c1cccc(Br)c1 | 3.03% |
| COc1ccccc1NC(=O)C(CC=C(Cl)Cl)C(C)=O (centres unmarked) | 21.6% |
| CN(C)CCn1c2c(c(SCC(=O)Nc3nccs3)nc1=O)CCCC2 | -30% |
| CCCCn1c(=O)c(C(=O)Nc2nnc(C(C)C)s2)c(O)c2ccccc21 | -2.58% |
| CCN(CC)S(=O)(=O)c1cccc(-c2nnc(C(=O)c3ccc(C(F)(F)F)cc3)o2)c1 | 8.73% |
| O=[N+]([O-])c1ccc(Cl)c(S(=O)(=O)/N=C(/c2ccccc2)N2CCOCC2)c1 | 3.91% |
| O=C1NC(=O)C(=Cc2ccc(SC3CCCCC3)o2)C(=O)N1 | 18.7% |
| O=C(CCC1CCCN(C(=O)COc2ccccc2)C1)N1CCN(c2ccccn2)CC1 (centres unmarked) | -26.6% |
| O=c1c(O)c(-c2ccc(O)cc2)oc2cc(O)cc(O)c12 | 7.99% |
| COC/C=C/C1=CC2=CC(=O)C(C)(OC(=O)c3cnc4ccccc4n3)C(=O)C2=CN1C1CCCC1 (centres unmarked) | -10.8% |
| Cc1cc(=O)oc2cc(NC(=O)c3cc([N+](=O)[O-])ccc3N3CCOCC3)ccc12 | -36.9% |
| COc1ccc(C(OCC(O)CNCCc2ccccc2)c2ccc(OC)cc2)cc1.O=C(O)C(=O)O (centres unmarked) | -63.7% |
| CCOc1cc(C2C(C(=O)c3ccc(C)o3)=C(O)C(=O)N2CCc2ccccc2)ccc1O (centres unmarked) | 12.4% |
| Cc1ccc(NC(=O)CSc2nnc(C)c(=O)[nH]2)cc1C | 12.2% |
| COc1cccc(/C=N/NC(=S)NCCc2ccccc2)c1 | 10.5% |
| Cc1ccccc1Cn1nc(C)c(NC(=O)c2sc3ccccc3c2Cl)c1C | -6.69% |
| COC(=O)Cc1ccc(NC(=S)Nc2cccc(C)n2)cc1 | 13.4% |
| O=C(NC(c1cccnc1)C(F)(F)F)c1cc(COc2ccc3c(c2)CCCC3)on1 (centres unmarked) | -4.7% |

| Structure (SMILES) | hERG current change (%, negative = inhibition) at 10uM |
| --- | --- |
| Cc1ccc(-c2noc(CCCN3C(=O)c4ccccc4C3=O)n2)cc1 | 9.03% |
| O=C(Nc1ccc(OCC(F)(F)C(F)F)c(C(F)(F)F)c1)c1ccccc1 | 4.51% |
| CC(=O)Nc1ccc(C(=O)COC(=O)c2nc3nc(C)cc(C)n3n2)cc1 | -1.6% |
| COc1ccc(CCNC(=O)CCC(=O)N2CCOc3ccc(C)cc32)cc1OC | 3.41% |
| CCC1C(=O)N=C(SCC(=O)Nc2cccc3ccccc23)NC1=O (centres unmarked) | -7.84% |
| Cc1nc(Oc2ccc(S(=O)(=O)N3CCOCC3)cc2Cl)c2c3c(sc2n1)CCCC3 | 7.95% |
| O=C(/C=C/c1ccc(S(=O)(=O)NCc2ccco2)cc1)NCc1ccccc1Cl | -19% |
| CCCCn1c(N)c(N(CC(C)C)C(=O)CSc2ccc([N+](=O)[O-])cc2)c(=O)[nH]c1=O | -25% |
| Cc1ccc(N2CC(C(=O)NCCC3=CCCCC3)CC2=O)cc1 (centres unmarked) | 2.9% |
| Cn1c(=O)[nH]c(=O)c2c1nc(N1CCCCC1)n2CC(O)CN1CCCCC1 (centres unmarked) | -3.99% |
| CCOc1ccc2nc(C)cc(Nc3ccc(N4CCOCC4)cc3)c2c1.Cl | -73% |
| COc1ccc(CCNC(=O)Cc2cc(OCc3ccccc3)c(OC)cc2[N+](=O)[O-])cc1OC | -15.1% |
| COc1cccc(NS(=O)(=O)c2ccc3[nH]cc(C(=O)NCCC(C)C)c(=O)c3c2)c1 | 13.9% |
| CC(C)CNC(=O)CSc1ccc(S(=O)(=O)N2CCN(C)CC2)cn1 | -0.986% |
| CCNc1nc(N)c(C(=C(C#N)C#N)c2ccccc2)s1 | 6.61% |
| O=C(Nc1nnc(Cc2ccccc2)s1)c1cnccn1 | 2.06% |
| COc1ccc(CC(=O)Nc2ccc(-c3nnc(-c4ccccc4)o3)cc2)cc1OC | -4.15% |
| COc1ccc2[nH]c(O)c(N=NC(=N)N)c2c1 | 7.36% |
| C=CCN(CC=C)C(=O)COC(=O)c1ccc(Sc2ncn[nH]2)c([N+](=O)[O-])c1 | 1.5% |
| CC1CCN(c2c(NCc3ccc(C(=O)NCc4ccco4)cc3)c(=O)c2=O)CC1 | 15.5% |
| Cc1cccc(N(CC(=O)NC2CCCCC2)C(=O)c2ccc(C)s2)c1 | -24.7% |
| Cc1nc(NCCO)c2nnn(Cc3ccccc3F)c2n1 | 8.52% |

| Structure (SMILES) | hERG current change (%, negative = inhibition) at 10uM |
| --- | --- |
| COc1ccc(/C=C(\C#N)C(=O)c2cccn2C)cc1 | 16.7% |
| CC1(C)CC2CC(C)(CN2C(=O)c2cc(-c3ccccc3)on2)C1 (centres unmarked) | -30% |
| CC(CN1CCCCC1)OC(=O)c1ccc2c(c1)OCO2.Cl (centres unmarked) | -25.3% |
| COc1cccc(Oc2nc3ncn(Cc4ccccc4)c3c(=O)n2C)c1 | 4.09% |
| O=c1nc(-c2ccccc2)n(-c2ccccc2)c2ncccc12 | 5.57% |
| COc1ccc(NC(=O)C2CCN(C(=O)c3ccco3)CC2)c(OC)c1 | 22.3% |
| Cc1cc(C)cc(NC(=O)Cn2cc(C=O)c3ccccc32)c1 | 17.9% |
| CC(C)c1nnc(NC(=O)Cc2cccs2)s1 | 1.06% |
| CCOC(=O)[C@H]1[C@H]2COc3ccc(Cl)cc3[C@@H]2N2C(=O)CN(Cc3ccco3)C(=O)[C@@]12C | -6.23% |
| COc1ccc(NC(=O)C2CCCN(c3cc(C)nc4ncnn34)C2)cc1 (centres unmarked) | -12.5% |
| CCN(CC)C(=O)C[n+]1ccc(C(N)=O)cc1.[Cl-] | 4.26% |
| CSC[C@H](NC(=O)COc1cc2c(c3oc(=O)c(C)c(C)c13)CCC(C)(C)O2)C(=O)O | 17.5% |
| COc1ccc(CCNS(=O)(=O)c2cc(/C=C/C(=O)O)ccc2C)cc1OC | 8.58% |
| CCCCn1nc(C(=O)NCC(c2cccs2)N2CCOCC2)c2ccccc2c1=O (centres unmarked) | -44.7% |
| OCCCNCc1ccc(N(c2ccccc2)c2ccccc2)cc1 | -18.4% |
| CC(=O)NC12CC3CC(C1)CC(C(=O)OCC(=O)Nc1ncc(Cl)c(C)c1Cl)(C3)C2 | -6.22% |
| CC1CCCCN1C(=O)Cc1ccc(F)cc1 (centres unmarked) | -5.19% |
| Cc1ccc(S(=O)(=O)N2CCC(C(=O)N3CCC3)CC2)cc1 | 8.76% |
| COc1ccc(-c2cn3cccnc3n2)cc1NS(=O)(=O)c1ccccc1 | 7.82% |
| Cc1noc(/C=C/N(C)C)c1S(=O)(=O)N1CCC(C(=O)NC(C)(C)C)CC1 | 18.8% |
